{"source": "patent US20210122805A1", "about": "(Bristol-Myers Squibb, published 2021)", "key": {"[1]": {"target": "T1, human recombinant IL-23 (human, UniProt Q9NPF7 20-189; P29460 23-328)", "T1 sequence (looked up) 1": "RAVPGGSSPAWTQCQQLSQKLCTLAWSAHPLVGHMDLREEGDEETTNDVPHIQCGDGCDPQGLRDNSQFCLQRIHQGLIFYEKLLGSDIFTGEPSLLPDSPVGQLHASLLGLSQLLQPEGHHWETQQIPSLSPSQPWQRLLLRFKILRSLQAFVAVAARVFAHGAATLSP", "T1 sequence (looked up) 2": "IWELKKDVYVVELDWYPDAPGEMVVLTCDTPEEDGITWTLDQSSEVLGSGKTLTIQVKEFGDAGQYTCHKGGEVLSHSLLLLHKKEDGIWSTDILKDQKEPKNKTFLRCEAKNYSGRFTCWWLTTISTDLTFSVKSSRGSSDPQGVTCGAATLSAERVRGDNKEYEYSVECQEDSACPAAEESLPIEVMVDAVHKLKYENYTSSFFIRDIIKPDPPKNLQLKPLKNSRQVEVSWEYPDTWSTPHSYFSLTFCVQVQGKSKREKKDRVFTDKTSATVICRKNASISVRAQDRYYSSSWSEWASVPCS", "assay": "cell-based or functional assay"}, "[2]": {"target": "T2, human PCSK9 (human, UniProt Q8NBP7)", "assay": "cell-based or functional assay"}, "[3]": {"target": "T2, human PCSK9", "T2 sequence (Q8NBP7 31-692 limits assumed)": "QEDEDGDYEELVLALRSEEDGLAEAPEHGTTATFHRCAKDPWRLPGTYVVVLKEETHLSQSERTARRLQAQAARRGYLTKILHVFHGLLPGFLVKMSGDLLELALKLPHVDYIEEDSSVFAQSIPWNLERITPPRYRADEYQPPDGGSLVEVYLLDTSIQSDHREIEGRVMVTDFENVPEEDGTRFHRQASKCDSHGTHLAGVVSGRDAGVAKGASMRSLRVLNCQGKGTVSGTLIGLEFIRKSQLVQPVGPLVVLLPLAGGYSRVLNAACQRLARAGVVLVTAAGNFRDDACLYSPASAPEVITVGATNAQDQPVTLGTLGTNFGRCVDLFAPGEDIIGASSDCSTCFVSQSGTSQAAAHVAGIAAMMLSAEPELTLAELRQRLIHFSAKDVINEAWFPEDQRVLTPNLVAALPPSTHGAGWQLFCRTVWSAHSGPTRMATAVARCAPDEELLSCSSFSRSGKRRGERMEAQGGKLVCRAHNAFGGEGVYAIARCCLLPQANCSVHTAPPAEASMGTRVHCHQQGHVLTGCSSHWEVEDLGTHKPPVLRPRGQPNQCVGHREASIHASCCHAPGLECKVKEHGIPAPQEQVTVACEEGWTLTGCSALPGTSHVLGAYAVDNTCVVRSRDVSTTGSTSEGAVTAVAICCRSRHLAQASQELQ", "assay": "SPR (Biacore), 10Fn3 protein or Fc fusion captured by anti-His or anti-human antibody, target in flow, 25 C, 1:1 fit"}, "[4]": {"target": "T2, human PCSK9", "assay": "cell-based or functional assay", "remark": "listed apart in the source"}, "[5]": {"target": "VEGFR2 (Homo sapiens (Human), UniProt P35968 20-764)", "sequence (P35968 20-764 limits assumed)": "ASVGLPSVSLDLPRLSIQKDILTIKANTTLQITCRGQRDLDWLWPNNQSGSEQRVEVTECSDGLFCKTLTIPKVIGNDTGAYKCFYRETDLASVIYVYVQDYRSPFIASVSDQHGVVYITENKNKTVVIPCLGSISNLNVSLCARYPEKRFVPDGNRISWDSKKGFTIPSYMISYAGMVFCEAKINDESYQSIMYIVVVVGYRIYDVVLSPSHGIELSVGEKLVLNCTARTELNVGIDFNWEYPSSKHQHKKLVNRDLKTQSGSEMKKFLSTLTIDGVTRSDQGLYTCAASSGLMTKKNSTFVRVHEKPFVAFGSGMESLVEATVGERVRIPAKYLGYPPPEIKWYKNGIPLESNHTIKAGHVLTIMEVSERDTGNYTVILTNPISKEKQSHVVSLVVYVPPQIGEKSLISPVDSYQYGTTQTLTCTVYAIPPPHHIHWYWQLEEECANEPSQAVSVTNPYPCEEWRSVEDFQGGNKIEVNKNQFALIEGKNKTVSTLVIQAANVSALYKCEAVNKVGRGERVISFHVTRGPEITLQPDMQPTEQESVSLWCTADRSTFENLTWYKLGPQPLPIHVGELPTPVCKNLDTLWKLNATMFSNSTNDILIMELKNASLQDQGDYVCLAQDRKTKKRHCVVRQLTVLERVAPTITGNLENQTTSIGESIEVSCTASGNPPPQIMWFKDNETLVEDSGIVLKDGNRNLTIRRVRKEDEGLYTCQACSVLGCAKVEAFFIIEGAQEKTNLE", "assay": "SPR (Biacore), 10Fn3 protein or Fc fusion captured by anti-His or anti-human antibody, target in flow, 25 C, 1:1 fit"}}, "note": "Where two headings read alike, the source gives them in different places."}
{"binder": "PRD239 (Fc fusion) [human IgG1 Fc with changes and a few adjoining residues skipped]GGGGSGGVSDVPRDLEVVAATPTSLLISWGHYPLHVRYYRITYGETGGNSPVQEFTVPPRSHTATISGLKPGVDYTITVYAVTYYAQENYKEIPISINYRTEAS", "values": [{"measurement": "pSTAT3 IC50 (pM), Kit225 cells", "setting": "[1]", "value": 692, "unit": "pM"}]}
{"binder": "PRD713 (Fc fusion) GVSDVPRDLEVVAATPTSLLISWGHYPLHVRYYRITYGETGGNSPVQEFTVPPRSHTATISGLKPGVDYTITVYAVTYYAQENYKEIPISINYRTEIEPKSSGS[human IgG1 Fc with changes skipped]", "values": [{"measurement": "pSTAT3 IC50 (pM), Kit225 cells", "setting": "[1]", "value": 153, "unit": "pM"}]}
{"binder": "PRD289 (Fc fusion, X-Fc orientation; also called 1784F03-Fc) GVSDVPRDLEVVAATPTSLLISWRPPIHAYGYYRITYGETGGNSPVQEFTVPIVEGTATISGLKPGVDYTITVYAVEYTFKHSGYYHRPISINYRTEIEPKSSGS[human IgG1 Fc with changes skipped]", "values": [{"measurement": "IC50, HepG2 depletion inhibition", "setting": "[2]", "value": 0.00915, "unit": "µM"}, {"measurement": "Kd", "setting": "[3]", "value": 0.0086, "unit": "µM"}, {"measurement": "koff", "setting": "[3]", "value": 0.000103, "unit": "s⁻¹"}, {"measurement": "kon", "setting": "[3]", "value": 12000, "unit": "M⁻¹ s⁻¹"}]}
{"binder": "PRD290 (Fc fusion, X-Fc orientation; also called 1813E02-Fc) GVSDVPRDLEVVAATPTSLLISWSPPANGYGYYRITYGETGGNSPVQEFTVPVGRGTATISGLKPGVDYTITVYAVEYTYKGSGYYHRPISINYRTEIEPKSSGS[human IgG1 Fc with changes skipped]", "values": [{"measurement": "Kd", "setting": "[3]", "value": 0.0105, "unit": "µM"}, {"measurement": "koff", "setting": "[3]", "value": 0.000204, "unit": "s⁻¹"}, {"measurement": "kon", "setting": "[3]", "value": 19500, "unit": "M⁻¹ s⁻¹"}, {"measurement": "IC50, HepG2 depletion inhibition", "setting": "[4]", "value": 0.0042, "unit": "µM"}]}
{"binder": "PRD292 (Fc fusion, Fc-X orientation; also called Fc-1784F03) [human IgG1 Fc with changes and a few adjoining residues skipped]GGGGSGGVSDVPRDLEVVAATPTSLLISWRPPIHAYGYYRITYGETGGNSPVQEFTVPIVEGTATISGLKPGVDYTITVYAVEYTFKHSGYYHRPISINYRTEI", "values": [{"measurement": "IC50, HepG2 depletion inhibition", "setting": "[2]", "value": 0.0478, "unit": "µM"}, {"measurement": "Kd", "setting": "[3]", "value": 0.0318, "unit": "µM"}, {"measurement": "koff", "setting": "[3]", "value": 0.000149, "unit": "s⁻¹"}, {"measurement": "kon", "setting": "[3]", "value": 4680, "unit": "M⁻¹ s⁻¹"}]}
{"binder": "PRD293 (Fc fusion, Fc-X orientation; also called Fc-1813E02) [human IgG1 Fc with changes and a few adjoining residues skipped]GGGGSGGVSDVPRDLEVVAATPTSLLISWSPPANGYGYYRITYGETGGNSPVQEFTVPVGRGTATISGLKPGVDYTITVYAVEYTYKGSGYYHRPISINYRTEI", "values": [{"measurement": "Kd", "setting": "[3]", "value": 0.0269, "unit": "µM"}, {"measurement": "koff", "setting": "[3]", "value": 0.000172, "unit": "s⁻¹"}, {"measurement": "kon", "setting": "[3]", "value": 6380, "unit": "M⁻¹ s⁻¹"}, {"measurement": "IC50, HepG2 depletion inhibition", "setting": "[4]", "value": 0.0378, "unit": "µM"}]}
{"binder": "C7FL-Fc (Fc fusion, also called anti-VEGFR2 Fc-10Fn3; C7FL-Fc (PRD1309)) GSVSDVPRDLEVVAATPTSLLISWRHPHFPTRYYRITYGETGGNSPVQEFTVPLQPPTATISGLKPGVDYTITVYAVTDGRNGRLLSIPISINYRTEI[human IgG1 Fc with changes skipped]", "values": [{"measurement": "Kd", "setting": "[5]", "value": 0.0158, "unit": "µM"}, {"measurement": "koff", "setting": "[5]", "value": 0.000169, "unit": "s⁻¹"}, {"measurement": "kon", "setting": "[5]", "value": 10700, "unit": "M⁻¹ s⁻¹"}]}
